# Assay results from PubChem BioAssay AID485360 (National Center for Advancing Translational Sciences (NCATS), 2010).
# The whole screen tested about 230,000 compounds, of which about 1,500 (0.65%) were called active. Inconclusive means that the source gave no clear call. Such entries were picked first, then a sample of the others. The call rests on the fitted dose curve; in most records, active means well fitted inhibition curve with a large enough effect; inconclusive means small, poorly fitted or top-dose-only effect; inactive means no such curve, though single readings can be large or run the other way. A potency beside an inconclusive call is a rough fit, not a confirmed value.
# Target: Lethal(3)malignant brain tumor-like protein 1 (Homo sapiens) (UniProt Q9Y468)
# Assay: qHTS Assay for the Inhibitors of L3MBTL1; further: nearly all actives have a fitted effect of over 60% in size
# Settings: AlphaScreen L3MBTL1–H3K9me1 peptide binding; activity, negative = inhibition: at 57.1 µM (top of the series)
# In short: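 AlphaScreen assay: L3MBTL1 (50 nM final) was preincubated 30 min at room temperature with biotinylated H3(1-15)K9me1 peptide (75 nM final), then 30 min with library compounds; streptavidin donor and nickel chelate acceptor beads (10 ug/mL final) added, 30 min dark.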
# On the % scale 0 is the no-effect control and ±100 the full control effect; potency means the concentration at half of the fitted maximal effect; tags describe the fitted curve by direction and shape.
# Sequence of UniProt Q9Y468 (Q9Y468 whole entry, looked up): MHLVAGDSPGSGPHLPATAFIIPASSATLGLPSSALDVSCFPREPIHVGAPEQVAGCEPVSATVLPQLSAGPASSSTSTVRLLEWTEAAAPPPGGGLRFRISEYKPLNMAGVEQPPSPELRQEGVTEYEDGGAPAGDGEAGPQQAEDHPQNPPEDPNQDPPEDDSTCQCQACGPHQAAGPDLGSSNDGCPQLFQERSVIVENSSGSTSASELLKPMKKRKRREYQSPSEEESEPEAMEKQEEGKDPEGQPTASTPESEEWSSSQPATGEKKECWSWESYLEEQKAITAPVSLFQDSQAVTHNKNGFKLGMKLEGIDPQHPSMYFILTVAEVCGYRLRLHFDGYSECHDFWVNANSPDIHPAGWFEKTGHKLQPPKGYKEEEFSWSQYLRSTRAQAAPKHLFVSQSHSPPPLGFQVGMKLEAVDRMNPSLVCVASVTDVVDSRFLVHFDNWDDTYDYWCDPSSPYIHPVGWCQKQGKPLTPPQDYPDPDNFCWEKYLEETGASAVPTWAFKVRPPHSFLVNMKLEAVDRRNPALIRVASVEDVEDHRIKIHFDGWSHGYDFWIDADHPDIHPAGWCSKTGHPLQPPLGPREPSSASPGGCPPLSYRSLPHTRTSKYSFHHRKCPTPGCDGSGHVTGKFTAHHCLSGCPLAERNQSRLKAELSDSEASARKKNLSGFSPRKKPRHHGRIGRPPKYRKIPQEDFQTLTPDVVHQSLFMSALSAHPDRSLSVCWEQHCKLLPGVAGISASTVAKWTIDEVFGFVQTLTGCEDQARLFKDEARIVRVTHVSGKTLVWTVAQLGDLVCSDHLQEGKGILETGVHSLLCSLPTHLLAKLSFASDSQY
SMILES,"activity, negative = inhibition",Potency
CN(C)/C=C1/NC(=S)NC1=O,inactive: 10%,–
Cc1ccccc1-n1nc(C)c2cc(C(=O)N3CCN(S(=O)(=O)c4ccc(F)cc4)CC3)sc21,–,"inconclusive: 7.08 µM [inhibitor, single point]"
COc1cccc(-c2cnc(NCc3cc(Cl)ccc3O)n2C)c1,–,"inconclusive: 39.8 µM [inhibitor, single point]"
COc1ccc(-c2noc(-c3ccccc3Cl)n2)cc1OC,–,"inconclusive: 0.708 µM [inhibitor, full curve, poor fit]"
O=C(Cn1nnc(-c2ccccc2)n1)N/N=C/c1cc([N+](=O)[O-])ccc1O,–,"inconclusive: 3.16 µM [inhibitor, partial curve]"
O=C(Nc1ccc2nc(-c3cccnc3)[nH]c2c1)c1ccco1,–,"inconclusive: 39.8 µM [inhibitor, single point]"
CN(Cc1nc(-c2cccs2)no1)CC1(N2CCOCC2)CCCCC1,inactive: -0.725%,–
C=CCn1c(NC(=O)c2ccc(Br)o2)c(S(=O)(=O)c2ccccc2)c2nc3ccccc3nc21,–,"inconclusive: 28.2 µM [inhibitor, partial curve]"
COc1ccccc1N1CCN(c2cnccn2)CC1,–,"inconclusive: 1.58 µM [inhibitor, partial curve, poor fit]"
O=C(/C=C/c1cccc(F)c1)c1ccc(N2CCOCC2)cc1,–,"inconclusive: 5.01 µM [inhibitor, partial curve]"
CN(C)CCCN(C(=O)CCc1ccccc1)c1nc2c(F)cccc2s1,inactive: -14.7%,–
Cc1ccc(C(=O)NCCOc2cccc(C)c2)cc1,inactive: 15%,–
Cc1cc(C)cc(NC(=O)CCn2cnc3cc(C)c(C)cc32)c1,inactive: 7.24%,–
Nc1n[nH]c(N)c1N=Nc1cccc(F)c1,inactive: -14.4%,–
Cc1cc(NC(=O)c2ccc(S(=O)(=O)N3CCOCC3)cc2)no1,inactive: 7.42%,–
Cc1sc2nc(CSCC(=O)Nc3ccc(N4CCOCC4)cc3)[nH]c(=O)c2c1C,–,"inconclusive: 39.8 µM [inhibitor, partial curve]"
CN1CCN(S(=O)(=O)c2ccc(N3CCN(c4ccccc4O)CC3)c([N+](=O)[O-])c2)CC1,–,"inconclusive: 31.6 µM [inhibitor, single point]"
COc1cc(N/N=C/c2ccc(N(C)C)cc2)ncn1,–,"inconclusive: 10 µM [inhibitor, partial curve]"
CCCCOc1ccc(C(=O)N2CCCC2C(=O)O)cc1 (stereo not given),–,"inconclusive: 6.31 µM [inhibitor, single point]"
O=C(N/N=C/c1ccco1)c1cccc(S(=O)(=O)Nc2ccccc2Cl)c1,–,"inconclusive: 28.2 µM [inhibitor, single point]"
O=c1[nH]c2c(s1)C=Nc1ccccc1N2,inactive: -3.71%,–
Cc1ccc2cc(CN(Cc3ccc4c(c3)OCO4)Cc3nnnn3Cc3ccco3)c(=O)[nH]c2c1C,–,"inconclusive: 31.6 µM [inhibitor, single point]"
Cc1c(C(=O)O)sc(S(=O)(=O)N2CCN(C(=O)Cc3ccccc3)CC2)c1C(=O)O,–,"inconclusive: 31.6 µM [inhibitor, single point]"
COc1cc2c(N3CCOCC3)cc(O)c(CC(=O)Nc3ccccc3)c2cc1OC,–,"inconclusive: 6.31 µM [inhibitor, single point]"

SMILES,"activity, negative = inhibition",Potency
CSc1ccc(/C=C(/Sc2nnc(-c3ccccc3)o2)C(=O)O)cc1,inactive: 7.07%,–
COc1ccc(-n2cc(C#N)c(=O)[nH]c2=O)cc1,–,"inconclusive: 0.141 µM [inhibitor, full curve, poor fit]"
COc1ccc(C(=O)OC(C)C(=O)NC2CCCCC2C)cc1S(=O)(=O)N1CCOCC1 (stereo not given),inactive: 30.7%,–
CCOC(=O)N1CCN(C(=O)CNC(=O)c2nn(-c3ccc(OC)cc3)c(=O)c3ccccc23)CC1,–,"inconclusive: 4.47 µM [inhibitor, single point]"
O=[N+]([O-])c1cc(Cl)ccc1N1CCCC1,–,"inconclusive: 4.47 µM [inhibitor, full curve]"
O=c1/c(=C/c2ccccn2)sc2n1CN(c1ccccc1)CN=2,inactive: -2.95%,–
O=C(COC(=O)c1ccc2ncsc2c1)Nc1ncc(Cl)cc1Cl,–,"inconclusive: 31.6 µM [inhibitor, single point]"
Cc1ccc(O)c(C(=O)c2cnc3c(c2)COc2ccccc2-3)c1,–,"inconclusive: 5.01 µM [inhibitor, single point]"
O=C(CC12CC3CC(CC(C3)C1)C2)NC(=S)N1CCCCC1,inactive: -2.44%,–
COC(=O)c1cc(NC(=O)c2ccc3c(c2)NC(=O)c2ccccc2S3)cc(C(=O)OC)c1,–,"inconclusive: 31.6 µM [inhibitor, single point]"
O=C1C(=O)c2ccc(-c3ccccc3)cc2-c2ccccc21,–,"inconclusive: 6.31 µM [inhibitor, single point]"
O=C(NC1(Cc2ccccc2)CCN(CCc2cccs2)C1=O)c1ccccc1 (stereo not given),inactive: -1.69%,–
O=C(Nc1ccc(N2CCCCC2)cc1)C1CCCN1S(=O)(=O)c1ccc(F)cc1 (stereo not given),–,"inconclusive: 28.2 µM [inhibitor, single point]"
Cc1cccc(OCCOCCN2CCNCC2)c1C,inactive: 6.04%,–
COCCCNC(=O)CN(c1ccc(OC)cc1)S(=O)(=O)c1ccc(NC(C)=O)cc1,inactive: -1.85%,–
COc1ccc(C(=O)Nc2ccc(N3CCOCC3)cc2)cc1OC,inactive: 4.7%,–
Cc1cc(=O)n2c(n1)SCOC2,–,"inconclusive: 7.08 µM [inhibitor, single point]"
CCSc1nnc(NC(=O)C2Cc3ccccc3CN2C(=O)c2ccco2)s1 (stereo not given),–,"inconclusive: 31.6 µM [inhibitor, single point]"
O=C(CSc1ccsc1[N+](=O)[O-])N1CCN(c2ccccc2)CC1,–,"inconclusive: 22.4 µM [inhibitor, single point]"
NNC(=O)c1sccc1OCc1cccc(C(F)(F)F)c1,–,"inconclusive: 5.01 µM [inhibitor, full curve, poor fit]"
CC(=O)c1c(C)[nH]c(C(=O)COc2ccc3ccc(=O)oc3c2)c1C,–,"inconclusive: 31.6 µM [inhibitor, single point]"
COC(=O)/C(=C\C(=O)c1ccc([N+](=O)[O-])cc1)Nc1ccc(OC)cc1,–,"inconclusive: 2.51 µM [inhibitor, full curve]"
C=CCn1c(SCc2nc3sc(C(=O)O)c(C)c3c(=O)[nH]2)nnc1-c1ccc(C(C)(C)C)cc1,–,"inconclusive: 0.794 µM [inhibitor, full curve, poor fit]"
Cc1ccc(C(=O)Cn2cnc3ccccc3c2=O)cc1,inactive: 1.67%,–

SMILES,"activity, negative = inhibition",Potency
COc1ccc(-n2cc(CNCCc3ncc(C)[nH]3)c(-c3ccccc3Cl)n2)cc1,inactive: -7.34%,–
COc1cccc(-n2nc(C(C)=O)c(=O)[nH]c2=O)c1,–,"inconclusive: 11.2 µM [inhibitor, partial curve]"
O=C(CSc1nc2ccccc2c(=O)n1-c1ccccc1F)N1CCOCC1,inactive: 2.61%,–
Cc1cc(C(F)F)n2nc(C(=O)Nc3ccc(S(=O)(=O)N4CCCC4)cc3)nc2n1,–,"inconclusive: 3.55 µM [inhibitor, single point]"
Nc1ccc(N(c2ccccc2)c2ccc(N)cc2)cc1,–,"inconclusive: 15.8 µM [inhibitor, partial curve]"
CCN(C(=O)COC(=O)c1ccc(OC)c(S(=O)(=O)N(C)Cc2ccccc2)c1)C1CCS(=O)(=O)C1 (stereo not given),inactive: 2.09%,–
O=C(Nc1ccccc1)c1cnc2n(c1=O)CCS2,–,"inconclusive: 39.8 µM [inhibitor, single point]"
Cc1cccc(-n2c(O)c(C=Nc3ccccc3O)c3ccccc3c2=O)n1,inactive: -12.4%,–
CC1=NN(c2nc(-c3ccc(C)cc3)cs2)C(=O)C1N=Nc1cccc(O)c1 (stereo not given),–,"inconclusive: 35.5 µM [inhibitor, partial curve]"
COc1ccc(-n2c(SCC(=O)Nc3cc(C)on3)nc3ccc(O)cc3c2=O)cc1OC,–,"inconclusive: 5.62 µM [inhibitor, single point]"
CC(=O)C(=Nc1ccccc1Cl)NNc1ccc(Cl)cc1,–,"inconclusive: 35.5 µM [inhibitor, partial curve]"
O=C1Nc2ccccc2Oc2cc([N+](=O)[O-])ccc21,–,"inconclusive: 12.6 µM [inhibitor, single point]"
Cc1cc(C(=O)COC(=O)c2cc(Cl)ccc2N)c(C)n1Cc1ccco1,–,"inconclusive: 31.6 µM [inhibitor, partial curve]"
COCCCNC(=S)N/N=C/c1ccccc1O,–,"inconclusive: 7.94 µM [inhibitor, partial curve]"
O=C(N/N=C\c1c(O)ccc2ccccc12)c1ccc(Cn2cccn2)o1,inactive: -5.98%,–
O=C(O)c1ccc(/C=N/Nc2nnnn2-c2ccccc2)cc1,–,"inconclusive: 0.794 µM [inhibitor, single point]"
CSc1nsc(SC)c1NC(=O)Nc1ccccc1C,–,"inconclusive: 0.631 µM [inhibitor, full curve]"
Cc1ccc(S(=O)(=O)Oc2ccc(/C=N/NC(=O)c3nn(C)cc3Cl)cc2)cc1,–,"inconclusive: 5.01 µM [inhibitor, single point]"
COc1ccc(CCNC(=O)CSc2nc(N)c3c(C)c(C)oc3n2)cc1OC,–,"inconclusive: 5.62 µM [inhibitor, single point]"
Cc1ccc2[nH]c3c(c2c1)CN(C(=O)CN1CCCc2ccccc21)CC3,inactive: 11.7%,–
C#CCOCCOCCOCCNc1nc(N2CCN(C(=O)CCCCCCCCCCNC(=O)[C@H](CO)n3cc(CCCSC)nn3)CC2)nc(N2CCN(C(=O)CCCCCCCCCCNC(=O)[C@@H]([C@H](C)O)n3cc(C)nn3)CC2)n1,inactive: -1.61%,–
Cc1ccc(SCC(=O)Nc2ccc(F)cc2[N+](=O)[O-])cc1C,–,"inconclusive: 14.1 µM [inhibitor, partial curve]"
